# Laboratory results taken from publication PMC4336329 (PLoS ONE, 2015).
# Out of some 310,000 compounds screened, about 14,000 (4.5%) showed an effect of 50% or more. The effect is printed as a negative number. This is one part of the list.
# Target: human ether-à-go-go-related gene (hERG) potassium channel (human, UniProt Q12809)
# Assay: primary screen, population patch clamp on CHO cells stably expressing hERG
# 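Further: peak tail current of the secondary pulse compared with the same well before compound.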
# Chain of human ether-à-go-go-related gene (hERG) potassium channel (Q12809 whole entry, looked up): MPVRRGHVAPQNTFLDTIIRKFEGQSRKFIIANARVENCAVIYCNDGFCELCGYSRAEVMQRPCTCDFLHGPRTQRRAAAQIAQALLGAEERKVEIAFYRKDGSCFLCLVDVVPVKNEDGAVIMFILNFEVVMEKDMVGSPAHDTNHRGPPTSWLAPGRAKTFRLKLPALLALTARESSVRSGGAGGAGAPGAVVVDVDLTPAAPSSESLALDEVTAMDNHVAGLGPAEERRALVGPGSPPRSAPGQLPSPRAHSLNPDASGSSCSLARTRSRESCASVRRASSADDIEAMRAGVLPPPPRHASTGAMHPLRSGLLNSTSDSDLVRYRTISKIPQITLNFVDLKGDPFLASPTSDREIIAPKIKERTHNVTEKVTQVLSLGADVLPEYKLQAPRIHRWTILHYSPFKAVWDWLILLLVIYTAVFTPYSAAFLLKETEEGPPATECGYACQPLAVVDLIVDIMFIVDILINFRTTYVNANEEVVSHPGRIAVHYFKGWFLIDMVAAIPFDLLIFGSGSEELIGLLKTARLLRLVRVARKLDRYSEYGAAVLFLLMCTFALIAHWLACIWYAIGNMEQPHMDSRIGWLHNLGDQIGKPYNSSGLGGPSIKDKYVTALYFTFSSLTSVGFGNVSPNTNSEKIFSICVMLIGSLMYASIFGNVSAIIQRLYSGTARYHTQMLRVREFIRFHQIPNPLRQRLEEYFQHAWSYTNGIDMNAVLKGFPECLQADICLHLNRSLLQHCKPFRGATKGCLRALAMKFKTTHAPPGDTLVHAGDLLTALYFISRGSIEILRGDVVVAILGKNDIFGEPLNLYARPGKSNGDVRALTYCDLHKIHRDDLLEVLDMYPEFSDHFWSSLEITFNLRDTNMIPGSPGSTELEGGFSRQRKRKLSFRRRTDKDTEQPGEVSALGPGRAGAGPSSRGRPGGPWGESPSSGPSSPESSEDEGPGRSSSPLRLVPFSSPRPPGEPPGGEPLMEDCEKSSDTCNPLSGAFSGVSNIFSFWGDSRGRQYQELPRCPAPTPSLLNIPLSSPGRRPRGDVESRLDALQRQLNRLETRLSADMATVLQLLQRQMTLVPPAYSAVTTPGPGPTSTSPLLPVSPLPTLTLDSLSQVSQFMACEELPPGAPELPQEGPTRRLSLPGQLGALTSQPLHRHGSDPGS
row,SMILES,"hERG current change (%, negative = inhibition) at 10uM [%]"
1,O=C(CN(C(=O)c1ccc(Cl)cc1)N1C(=O)C2CCCCC2C1=O)c1ccc(Cl)cc1 (centres unmarked),15.1
2,COCCNc1nc(N)c([N+](=O)[O-])c(NC2CCCCC2)n1,4.56
3,CCCCCOC(=O)Nc1ccc(S(=O)(=O)Nn2cnnc2)cc1,6.12
4,Cc1nc2ccccc2c(N)c1C(=O)/C=C/c1ccccc1,-79.7
5,Cc1ccc(S(=O)(=O)N2CCOCC2)cc1NC(=O)COC(=O)CCn1c(C)csc1=O,2.85
6,COc1ccccc1-c1sc2cc3c(cc2c1-c1ccc2c(c1)OCO2)OCO3,5.16
7,Cc1ccc(S(=O)(=O)N2CCCCC2)cc1NC(=O)COC(=O)CNC(=O)c1cc(Cl)cc([N+](=O)[O-])c1,-51.4
8,CCc1cccc(C)c1NC(=O)CCOc1ccccc1,3.79
9,Cc1ccc(NS(=O)(=O)c2cccs2)cc1S(=O)(=O)N1CCCCCC1,-0.255
10,CC(NC(=O)c1cc(S(=O)(=O)N2CCCC2)ccc1Cl)c1ccccn1 (centres unmarked),18.1
11,O.OC[C@H]1O[C@@H](n2cnc3c(NC4CCCC4)nc(Cl)nc32)[C@H](O)[C@@H]1O,6.9
12,CCOc1nc(-c2ccccc2)c2cc(C)ccc2n1,-37.6
13,CC(=O)Nc1ccc2nc(-c3ccccn3)[nH]c2c1,0.751
14,CCCCCCCCCC(=O)OCC(O)CO (centres unmarked),3.18
15,O=C(OCC(=O)N1CCc2ccccc2C1)c1cc(=O)[nH]c2ccccc12,7.67
16,CCc1nn2cc(C(=O)c3cc(C)ccc3O)cnc2c1-c1ccc(F)cc1,1.69
17,CCCNC(=S)N1CCN(CC)CC1.O=C(O)C(=O)O,5.56
18,O=C1/C(=C/c2ccc(O)cc2)COc2ccccc21,23.1
19,Cc1ccnc(OC(C(=O)O)C(OCc2ccccc2)(c2ccc(F)cc2)c2ccc(F)cc2)n1 (centres unmarked),19.4
20,Cc1cc(C)n(-c2cc(O)c(-n3nc(C)cc3C)cc2O)n1,23.8
21,CC(=O)O[C@H]1CC[C@@]2(C)C(=CC[C@H]3[C@@H]4CC[C@H](C(C)=O)[C@@]4(C)CC[C@@H]32)C1,10.9
22,CCCCn1c(N)c(N(CC(C)C)C(=O)c2cc(S(=O)(=O)N3CCCCC3)ccc2C)c(=O)[nH]c1=O,13.3

row,SMILES,"hERG current change (%, negative = inhibition) at 10uM [%]"
1,NC(=O)C1(N2CCCCC2)CCN(C(=S)Nc2ccc(S(N)(=O)=O)cc2)CC1,11.8
2,O=C(NCc1ccc(F)cc1)c1ccc(Cl)c(NC2=NC3CS(=O)(=O)CC3S2)c1 (centres unmarked),-12.4
3,O=C(CN1Cc2ccccc2C1=O)Nc1ccc2c(c1)OCCO2,3.26
4,Cc1nnc(SCc2ccc(Cl)c(Cl)c2)s1,-6.82
5,CCN1CCN(C(=O)CN(c2ccc(F)cc2)S(=O)(=O)c2ccc(OC)c(OC)c2)CC1,-66.8
6,Cc1cccc(N=C2NC(=O)/C(=C/c3cccs3)S2)c1,11.9
7,Cc1cccc(C)c1NC(=O)C(=O)NCc1ccccn1,-2.62
8,CCOC(=O)c1cnc2c(c(C)nn2C)c1Oc1cc(Cl)cc(Cl)c1,11.1
9,O=C(CC(=O)N/N=C\c1c(Cl)cccc1Cl)NCc1ccccc1,14.7
10,C=CCSc1nnc(NC(=O)c2ccc(N3CCCC3=O)cc2)s1,18.7
11,CSCCC(NC(=O)c1ccccc1)C(=O)N/N=C(\C)Cc1ccccc1 (centres unmarked),11.2
12,O=C(c1ccc(N2CCCC2=O)cc1)N1CCN(c2ccccc2O)CC1,-23.7
13,O=C(c1ccco1)N1CCN(S(=O)(=O)c2cccc3nsnc23)CC1,-7.37
14,CCc1ccc(NC(=S)N2CCCC2)cc1,12.9
15,Nc1ccc2oc(-c3cc(Br)ccc3Cl)nc2c1,5.7
16,CC(C)CC(=O)Nc1nnc(SCC(=O)NCc2ccco2)s1,-10.3
17,Cc1cc(NCCCn2ccnc2)n2nc(-c3ccc(Cl)cc3)cc2n1,-74.6
18,CCC(=O)N1c2ccccc2NC2=C(C(=O)CC(c3ccco3)C2)C1c1ccco1 (centres unmarked),-11.3
19,O=c1[nH]c(CN2CCCC2)nc2sc3c(c12)CCC3,20.5
20,CCn1cnc2cc(NCc3ccccc3Cl)ccc21,-52.1
21,CCCCOC(=O)C(NC(=O)c1ccccc1)=C(C)C,7.83
22,CCOc1ccc(OCC)c(NC(=O)CCCN2C(=O)c3cccnc3C2=O)c1,6.57

row,SMILES,"hERG current change (%, negative = inhibition) at 10uM [%]"
1,COCCN1C=C(C(=O)OC)C(c2ccc(Cl)cc2)C(C(=O)OC)=C1,-5.52
2,COc1cc(OC)cc(C(=O)N[C@H](C(=O)Nc2ccc(S(=O)(=O)N(C)C)cc2)C(C)C)c1,2.97
3,Cc1ccc(C)c(OCC(=O)Nc2ccc(S(=O)(=O)Nc3ncccn3)cc2)c1,5.02
4,Cc1cccc(N(CC(N)=O)S(C)(=O)=O)c1C,21.5
5,CCCNC(=O)CCc1nnc2ccc(N3CCC(C)CC3)nn12,2.79
6,Br.COc1ccc(-c2csc(Cc3nnc4n3CCCCC4)n2)cc1OC,-23.2
7,COCC(=O)NNS(=O)(=O)c1ccccc1[N+](=O)[O-],10.5
8,Cc1cc(C)c(S(=O)(=O)CCC(C)C)c(=O)[nH]1,7.63
9,CCOC(=O)Cc1csc(NC(=O)c2c(-c3c(F)cccc3Cl)noc2C)n1,-32.7
10,CCOc1ccc(C(=O)Nc2ccc(Cc3ccncc3)cc2)cc1Br,8.02
11,CCOC(=O)C1(CC2CCCCO2)CCN(Cc2cc3ccccc3[nH]2)CC1 (centres unmarked),-46.1
12,CC(C)CC1=NN(C(=O)c2ccco2)C(O)(C(F)(F)F)C1 (centres unmarked),26.5
13,CCCCCN(C(=O)COC(=O)c1ccc(Br)o1)c1c(N)n(CCCC)c(=O)[nH]c1=O,-6.93
14,COc1cccc(C2NC(=O)CCC2[N+](=O)[O-])c1 (centres unmarked),19.3
15,Cc1ccc(N2C(=O)Nc3ccc(Br)cc3C2(O)C(=O)NCCN(C)C)cc1C (centres unmarked),21.4
16,N#Cc1c(SCC(N)=O)nc(-c2ccccc2)c2c1CCCC2,-0.645
17,O=C(COC(=O)c1cc(Cl)ccc1[N+](=O)[O-])NCc1ccc(Cl)cc1Cl,-11.8
18,O=C(O)CC1S/C(=N/N=C/c2ccc(-c3ccc(Cl)cc3[N+](=O)[O-])o2)NC1=O (centres unmarked),5.69
19,Cc1ccc2nc(Cl)c(/C=N/Nc3nc(C)cc(C)n3)c(=O)n2c1,-21.5
20,C=CCn1c(SCC(=O)c2c(N)n(C)c(=O)n(C)c2=O)nc2sc(CC)cc2c1=O,-7.87
21,COCCn1nnnc1C(c1cc2cc(OC)c(OC)cc2[nH]c1=O)N1CCN(c2ccc(O)cc2)CC1 (centres unmarked),19.2
22,CCCCC1=CC2=CC(=O)C(C)(OC(=O)CC)C(=O)C2=CN1c1cccc(C#N)c1 (centres unmarked),-3.42

row,SMILES,"hERG current change (%, negative = inhibition) at 10uM [%]"
1,CNCC(=O)Nc1c(C)n[nH]c1C,11.4
2,COc1ccc(CC(=O)Nc2c(C(=O)N3CCN(c4ccccc4)CC3)oc3ccccc23)cc1OC,-32.4
3,Cc1nn(C(=O)c2nn(C)cc2[N+](=O)[O-])c(C)c1Br,2.77
4,O=C1CC(N2CCN(c3cccc(C(F)(F)F)c3)CC2)C(=O)N1c1ccc(F)cc1 (centres unmarked),-6.28
5,CC(=O)n1cc([C@H]2C=C(C(N)=O)O[C@@H](OCc3ccc(CO)cc3)C2)c2ccccc21,-16.8
6,COc1cccc(CN(C)CC(=O)Nc2ccccc2C(=O)NC2CC2)c1,-27.9
7,Fc1ccccc1NC(=S)Nc1ccc(CN2CCOCC2)cc1,10
8,O=C1CCC(C(=O)N2CCc3c(Cl)cccc3C2)CN1CCCN1CCOCC1 (centres unmarked),1.7
9,Nc1c(S(=O)(=O)c2ccccc2)c2nc3ccccc3nc2n1Cc1ccco1,-9.5
10,CC(C)c1cccc(C(C)C)c1NC(=O)COC(=O)C1=COCCO1,11.8
11,O=C(Nn1c(Cc2cccs2)nc2ccccc2c1=O)c1cccs1,-21.6
12,Cn1c(=O)n(-c2ccc(Cl)cc2)c(=O)c2c3c(sc21)COC(C)(C)C3,3.68
13,c1ccn(-c2ccc(-c3ccn[nH]3)cc2)c1,19.7
14,COc1cc(OC)c2c(N)c(C#N)c(C(F)(F)C(F)(F)F)nc2c1,-9.78
15,COc1ccc(C(=O)/C(=C\c2ccco2)N2C=CC=CC2=C(C#N)C#N)cc1,-72
16,CCCCn1c(N)c(N(CC(C)C)C(=O)CSCC(=O)Nc2cccc(C)c2)c(=O)[nH]c1=O,1.01
17,COc1ccc(C2CC(=O)N3CN(c4ccccc4F)CSC3=C2C#N)cc1OC (centres unmarked),22.4
18,CCN(CC(=O)Nc1c(F)cccc1F)C(=O)/C=C/c1ccc(C)cc1,-36.1
19,O=C(N/C(=C/c1ccco1)C(=O)N1CCOCC1)c1ccccc1Br,8.25
20,O=C(CCn1c(=O)c2cccn2c2ccc(F)cc21)NCCc1ccccc1,-19.7
